{"source": "PubChem BioAssay AID1508642", "about": "(National Center for Advancing Translational Sciences (NCATS), 2021)", "note": "Among all 43,000 compounds or so, about 200 (0.47%) were called active. Not shown: some 12% with an inconclusive outcome. Calls come from the whole dose curve; as a rule, active = well fitted cell-killing curve with a large enough effect; inconclusive = small, poorly fitted or top-dose-only effect, or effect the other way; inactive = flat fitted curve, though single readings scatter. Some of the results follow. % is set by controls: 0 for no effect and ±100 for the full control effect."}
{"assay": "Cell viability qHTS assay in S16 Pmp22-F2sN cells; note: nearly all actives have a fitted effect of over 65% in size", "conditions": "S16 Pmp22-F2sN Schwann cells (luciferase reporters placed in the Pmp22 gene) viability, CellTiter-Glo, 24 h; series mostly up to 57.5 µM; activity change, negative = cytotoxicity: at the top concentration", "in_short": "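CellTiter-Glo counter-screen, qHTS, 1536-well. Cells: S16(c9) Pmp22-F2sN, 500-1,000/well in DMEM + 10% FBS. Cpd 23 nL pin transfer, 24 h, 37C/5% CO2. Read: luminescence, CCD imager.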"}
{"smiles": "CCOC(=O)C1=C(C)N=C2SCCC(=O)N2C1c1ccc(OCc2ccccc2)cc1", "note": "(stereo unspecified)", "activity change, negative = cytotoxicity": "inactive: 5.12%"}
{"smiles": "Cc1ccc(-n2ncc(C(=O)NCc3ccco3)c2C2CCN(C(=O)OC(C)(C)C)CC2)c(C)c1", "activity change, negative = cytotoxicity": "inactive: -5.86%"}
{"smiles": "CC(=O)c1ccc(N2C(=O)N(CC(=O)c3ccc(F)cc3)c3ccccc3S2(=O)=O)cc1", "activity change, negative = cytotoxicity": "inactive: 11.9%"}
{"smiles": "Cc1ccc(-n2ncc3c(NC4CCCCCC4)ncnc32)cc1Cl", "activity change, negative = cytotoxicity": "inactive: -5.67%"}
{"smiles": "Cc1cc(C)cc(NS(=O)(=O)c2cc3c(cc2C)NC(=O)CO3)c1", "activity change, negative = cytotoxicity": "inactive: -18%"}
{"smiles": "O=C(Nc1ccc(OC(F)(F)F)cc1)c1cc2ccccn2n1", "activity change, negative = cytotoxicity": "inactive: -2.25%"}
{"smiles": "O=c1nc2n(-c3ccccc3F)c3ccccc3cc-2c(=O)[nH]1", "activity change, negative = cytotoxicity": "inactive: -7.86%"}
{"smiles": "COc1cc(OC)c(Nc2nc3ccc(C(=O)c4ccccc4)cc3n3c(C)nnc23)cc1Cl", "activity change, negative = cytotoxicity": "inactive: 1.17%"}
{"smiles": "CCCCn1cc2c(c1-c1ccc(Cl)cc1)c(=O)n(C)c(=O)n2C", "activity change, negative = cytotoxicity": "inactive: -1.98%"}
{"smiles": "CCCN(C(=O)Cn1cnc2onc(-c3ccc(F)cc3)c2c1=O)c1cccc(Cl)c1", "activity change, negative = cytotoxicity": "inactive: 0.41%"}
{"smiles": "CCOc1ccc(CCNS(=O)(=O)c2cc(Br)cc3c2N(C(C)=O)CC3)cc1OCC", "activity change, negative = cytotoxicity": "inactive: 15%"}
{"smiles": "Cc1cc(C)n(-c2nc3ccccc3nc2Nc2cccc(C)c2C)n1", "activity change, negative = cytotoxicity": "inactive: 0.359%"}
{"smiles": "CCC(Sc1nc2ccccc2c(=O)n1CCc1ccc(OC)c(OC)c1)C(=O)N(CC)CC", "note": "(stereo unspecified)", "activity change, negative = cytotoxicity": "inactive: -14.5%"}
{"smiles": "CCOC(=O)c1c(NC(=O)c2ccc(S(=O)(=O)N(CC(C)C)CC(C)C)cc2)sc2c1CCN(C(=O)OCC)C2", "activity change, negative = cytotoxicity": "inactive: 0.339%"}
{"smiles": "CCC(=O)N(CCC(c1ccccc1)c1ccc2c(c1)OCO2)Cc1ccc(OC(C)C)cc1", "note": "(stereo unspecified)", "activity change, negative = cytotoxicity": "inactive: -28.6%"}
{"smiles": "COc1ccc(NC(=O)CSc2nnc(-c3nonc3NC(C)=O)n2-c2ccccc2)cc1", "activity change, negative = cytotoxicity": "inactive: 9.86%"}
{"smiles": "COc1ccc(Cl)cc1NC(=O)c1sc2nc3n(c(=O)c2c1C)CCC3", "activity change, negative = cytotoxicity": "inactive: 4.35%"}
{"smiles": "CCN(C(=O)c1cnc2ccc(C)cn2c1=O)c1ccccc1", "activity change, negative = cytotoxicity": "inactive: 8.38%"}
{"smiles": "COc1ccc(Cl)cc1NC(=O)c1nn(-c2ccc(C)cc2)c(=O)n(C)c1=O", "activity change, negative = cytotoxicity": "inactive: 2.02%"}
{"smiles": "Cc1cccc(CNC(=O)CS(=O)(=O)c2cccc3nsnc23)c1", "activity change, negative = cytotoxicity": "inactive: 0.747%"}
{"smiles": "COc1cc(NC(=O)Cn2cnc(S(=O)(=O)N3CCCC3)c2)cc(OC)c1OC", "activity change, negative = cytotoxicity": "inactive: 9.13%"}
{"smiles": "Clc1ccc(-c2noc3ncnc(NCCc4ccccc4)c23)cc1", "activity change, negative = cytotoxicity": "inactive: -1.99%"}
{"smiles": "CCc1ccc(NC(=O)C2CCN(c3nn4c(=O)cc(C)nc4s3)CC2)cc1", "activity change, negative = cytotoxicity": "inactive: 2.62%"}
{"smiles": "CCc1ccc(CNC(=O)C2CCN(c3nn4cc(-c5ccc(F)cc5)nc4s3)CC2)cc1", "activity change, negative = cytotoxicity": "inactive: 2.4%"}
{"smiles": "CC(=O)CSc1nnc2[nH]c(=O)cc(N)n12", "activity change, negative = cytotoxicity": "inactive: 6.19%"}
{"smiles": "CCOc1cc2[nH]c(=O)n(Cc3ccc(C(=O)N4CCN(c5cccc(Cl)c5)CC4)cc3)c(=O)c2cc1OCC", "activity change, negative = cytotoxicity": "inactive: -3.3%"}
{"smiles": "Cn1nc(C(=O)Nc2ccc(F)c(Cl)c2)c2c1-c1ccccc1S(=O)(=O)C2", "activity change, negative = cytotoxicity": "inactive: -10.7%"}
{"smiles": "CCOC(=O)c1c(C)c(-c2ccccc2)n(CC(=O)NC2CCCCC2)c1C", "activity change, negative = cytotoxicity": "inactive: -6.77%"}
{"smiles": "O=C(Cn1c(=O)nc(-c2ccccc2)c2cc(Cl)ccc21)N1CCN(c2ccc(F)cc2)CC1", "activity change, negative = cytotoxicity": "inactive: 12.3%"}
{"smiles": "COc1ccc(C(=O)NC2(C(F)(F)F)C(=O)Nc3c2c(=O)[nH]c(=O)n3CCc2ccc(OC)c(OC)c2)cc1", "note": "(stereo unspecified)", "activity change, negative = cytotoxicity": "inactive: 16.8%"}
{"smiles": "COc1cc(C2CC(=O)Oc3c2c(=O)n(C)c2ccccc32)ccc1O", "note": "(stereo unspecified)", "activity change, negative = cytotoxicity": "inactive: 3.78%"}
{"smiles": "Cc1ccc(NC(=O)Cn2c(=O)n(CC3CCCO3)c(=O)c3ccccc32)cc1", "note": "(stereo unspecified)", "activity change, negative = cytotoxicity": "inactive: 15.9%"}
{"smiles": "Cc1cc(C)c2oc(-c3cccc(NC(=O)COc4ccc([N+](=O)[O-])cc4)c3)nc2c1", "activity change, negative = cytotoxicity": "inactive: -18.9%"}
{"smiles": "Cc1ccc(Cl)cc1N1CCN(C(=O)c2ccc(CS(=O)(=O)c3ccccc3C)o2)CC1", "activity change, negative = cytotoxicity": "inactive: 6.95%"}
{"smiles": "O=C(COc1ccccc1)Nc1ccc2nc(SCCOc3ccccc3)sc2c1", "activity change, negative = cytotoxicity": "inactive: 4.81%"}
{"smiles": "CCOC(=O)c1[nH]c(C)c(CCC(=O)Nc2cc(C)ccc2OC)c1C", "activity change, negative = cytotoxicity": "inactive: 2.66%"}
{"smiles": "CCc1ccccc1NC(=O)c1cnc(N2CCCCC2)c2ccccc12", "activity change, negative = cytotoxicity": "inactive: -12.4%"}
{"smiles": "COc1cc(C(=O)NCC(c2cccs2)S(=O)(=O)c2cccs2)cc(OC)c1OC", "note": "(stereo unspecified)", "activity change, negative = cytotoxicity": "inactive: 13.8%"}
{"smiles": "CCOc1ccc(CCNC(=O)Cn2nc(CC)n3c(cc4ccccc43)c2=O)cc1", "activity change, negative = cytotoxicity": "inactive: 11%"}
{"smiles": "Fc1ccc(-c2noc3ncnc(NCc4ccc(Cl)cc4)c23)cc1", "activity change, negative = cytotoxicity": "inactive: -19.1%"}
{"smiles": "O=C(CCn1c(=O)c2cccn2c2cccnc21)NCc1ccc(F)cc1", "activity change, negative = cytotoxicity": "inactive: 20.8%"}
{"smiles": "CCN1C(=O)c2ccccc2S(=O)c2ccc(C(=O)N3CCN(c4cc(Cl)ccc4C)CC3)cc21", "note": "(stereo unspecified)", "activity change, negative = cytotoxicity": "inactive: -5.5%"}
{"smiles": "Cc1ccccc1CN1CCC(CNC(=O)c2c(C)oc3ncnc(N4CCCCC4)c23)CC1", "activity change, negative = cytotoxicity": "inactive: 5.11%"}
{"smiles": "CCOc1ccc(CCNC(=O)C2=C(C)C(=O)OC23CCCCC3)cc1", "activity change, negative = cytotoxicity": "inactive: -1.82%"}
{"smiles": "CCC(Sc1nc(-c2ccccc2F)nc2c1Cc1c(CO)cnc(C)c1O2)C(=O)Nc1cc(C)ccc1C", "note": "(stereo unspecified)", "activity change, negative = cytotoxicity": "inactive: -6.23%"}
{"smiles": "Cc1ccccc1C1CC(=O)Nc2ccc3ccccc3c21", "note": "(stereo unspecified)", "activity change, negative = cytotoxicity": "inactive: -6.35%"}
{"smiles": "Cc1ccc(C(=O)c2cn(CC(=O)Nc3ccc(C)cc3Cl)c3nc(C)ccc3c2=O)cc1", "activity change, negative = cytotoxicity": "inactive: 5.23%"}
{"smiles": "Cc1cccc(NC(=O)N2CC(=O)Nc3sc4c(c3C2c2ccccc2)CCCC4)c1C", "note": "(stereo unspecified)", "activity change, negative = cytotoxicity": "inactive: 4.56%"}
{"smiles": "CCOC(=O)C1CCN(C(=O)c2ccc(-n3ccc4ccccc43)s2)CC1", "activity change, negative = cytotoxicity": "inactive: 7.19%"}
{"smiles": "COc1ccc(Cn2ccn(Cc3cccc(OC)c3)c(=O)c2=O)cc1", "activity change, negative = cytotoxicity": "inactive: 2.71%"}
{"smiles": "CCOc1ccccc1OCCCn1c(-c2ccc(Cl)cc2)nc2ccccc2c1=O", "activity change, negative = cytotoxicity": "inactive: -1.7%"}
{"smiles": "Cc1cn2c(=O)cc(COC(=O)c3ccc(NC(=O)COc4ccccc4F)cc3)nc2s1", "activity change, negative = cytotoxicity": "inactive: 1.27%"}
{"smiles": "Cc1cc(C)cc(-n2c(-c3ccccc3)c(C)n3c4c(=O)n(C)c(=O)n(C)c4nc23)c1", "activity change, negative = cytotoxicity": "inactive: 7.2%"}
{"smiles": "CCOc1cc(CNC(=O)c2ccc3c(c2)NC(=O)C2CCCCN32)cc(OCC)c1OCC", "note": "(stereo unspecified)", "activity change, negative = cytotoxicity": "inactive: 6.77%"}
{"smiles": "COc1ccc(NC(=O)CSC2=Nc3ccccc3C3=NC(CCC(=O)NC4CCCCC4)C(=O)N23)cc1", "note": "(stereo unspecified)", "activity change, negative = cytotoxicity": "inactive: 8.45%"}
{"smiles": "CCCS(=O)(=O)N1CC(=O)N(c2ccc(Cl)cc2C)C(C)(C(=O)NC2CCCC2)C1", "note": "(stereo unspecified)", "activity change, negative = cytotoxicity": "inactive: 4%"}
{"smiles": "COc1cc2nc(NC(=O)c3ccc(S(=O)(=O)N4CCOCC4)cc3)sc2cc1OC", "activity change, negative = cytotoxicity": "inactive: 20%"}
{"smiles": "O=C(CSCc1ccccc1Cl)N1CCN(c2ccc(Cl)cc2)CC1", "activity change, negative = cytotoxicity": "inactive: 1.26%"}
{"smiles": "COc1c(C)cccc1C(=O)Nc1cccc2ccc(C)nc12", "activity change, negative = cytotoxicity": "inactive: 10.1%"}
{"smiles": "CC(=O)c1cccc(NC(=O)C2CCN(S(=O)(=O)c3ccc4c(c3)oc(=O)n4C)CC2)c1", "activity change, negative = cytotoxicity": "inactive: 8.5%"}
{"smiles": "COc1ccc2oc(=O)c(-c3cn4c(n3)sc3cc(OC)ccc34)cc2c1", "activity change, negative = cytotoxicity": "inactive: -0.154%"}
